# Experimental data reported in paper PMC4336329 (PLoS ONE, 2015).
# Among all 310,000 compounds or so, about 2,200 (0.71%) showed an effect of 50% or more. Effects have a minus sign here. The list shows a part of the results.
# Target: human ether-à-go-go-related gene (hERG) potassium channel (human, UniProt Q12809)
# Experiment: primary screen, population patch clamp on CHO cells stably expressing hERG
# Chain of human ether-à-go-go-related gene (hERG) potassium channel (Q12809 whole entry, looked up): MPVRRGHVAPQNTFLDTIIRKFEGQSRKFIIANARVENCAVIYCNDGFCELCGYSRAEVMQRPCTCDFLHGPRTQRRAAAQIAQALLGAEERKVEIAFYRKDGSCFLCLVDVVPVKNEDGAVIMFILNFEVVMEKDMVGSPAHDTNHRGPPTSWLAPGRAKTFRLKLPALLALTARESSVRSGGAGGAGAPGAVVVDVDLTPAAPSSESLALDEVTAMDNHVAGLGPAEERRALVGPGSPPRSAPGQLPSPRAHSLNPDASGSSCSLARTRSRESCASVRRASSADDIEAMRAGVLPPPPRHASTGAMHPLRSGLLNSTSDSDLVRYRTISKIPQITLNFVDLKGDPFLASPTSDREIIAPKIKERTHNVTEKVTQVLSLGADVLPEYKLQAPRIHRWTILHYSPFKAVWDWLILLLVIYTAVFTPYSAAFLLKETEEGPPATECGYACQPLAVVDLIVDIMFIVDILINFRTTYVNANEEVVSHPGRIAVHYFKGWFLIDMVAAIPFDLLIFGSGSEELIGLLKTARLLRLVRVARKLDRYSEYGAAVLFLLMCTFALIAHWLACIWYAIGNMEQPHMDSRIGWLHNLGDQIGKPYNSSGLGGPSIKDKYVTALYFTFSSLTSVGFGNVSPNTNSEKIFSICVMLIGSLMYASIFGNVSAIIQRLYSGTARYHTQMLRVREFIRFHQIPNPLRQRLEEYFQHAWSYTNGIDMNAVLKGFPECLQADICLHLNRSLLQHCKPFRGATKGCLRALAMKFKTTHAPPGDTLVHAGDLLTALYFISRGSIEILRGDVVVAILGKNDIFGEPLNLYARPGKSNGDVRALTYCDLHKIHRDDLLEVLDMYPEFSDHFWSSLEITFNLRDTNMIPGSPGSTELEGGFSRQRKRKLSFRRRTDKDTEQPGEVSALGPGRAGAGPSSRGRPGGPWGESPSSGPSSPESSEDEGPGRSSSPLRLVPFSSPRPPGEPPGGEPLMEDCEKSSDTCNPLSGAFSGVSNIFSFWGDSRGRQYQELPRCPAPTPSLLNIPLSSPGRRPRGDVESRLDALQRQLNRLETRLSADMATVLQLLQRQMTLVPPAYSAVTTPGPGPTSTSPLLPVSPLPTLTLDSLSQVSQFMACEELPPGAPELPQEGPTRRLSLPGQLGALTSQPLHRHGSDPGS
row,SMILES,"hERG current change (%, negative = inhibition) at 1uM [%]"
1,COc1ccc(C(=O)OCC(=O)Nc2ccc(F)c(F)c2)cc1OC,-3.19
2,CC1=C(c2ccccc2)C(=S)NC(C)(C)C1,0.0863
3,N#Cc1ccccc1OCC(=O)NC(=O)NCc1ccco1,3.34
4,CC(=O)N1N=C(c2ccc(C)o2)CC1c1ccc(Br)cc1 (stereo not shown),14.2
5,CCC(C(=O)Nc1cc(C)on1)c1ccccc1 (stereo not shown),8.48
6,Br.CC(C)CCC1CC(CSC(=N)N)OC1=O (stereo not shown),3.96
7,CC(C)CNc1nc(N)c([N+](=O)[O-])c(N2CCCCCC2)n1,10.6
8,COc1ccccc1N1CCN(C(=O)c2ccc(Cl)c(S(=O)(=O)N3CCCC3)c2)CC1,-2.66
9,Cc1cc(C(=O)NCCc2ccc(Cl)cc2)n(-c2ccccc2)n1,12.1
10,O=C(Nc1ccc(F)cc1Cl)C1CCN(C(=O)Nc2ccccc2)CC1,9.96
11,Cl.Clc1cccc(OCCN2CCCC2)c1,11.6
12,Cc1ccc(OCC(=O)OCC(=O)NC2CCCC2)cc1C,5.17
13,CC(=O)Nc1ccc(S(=O)(=O)N2CCN(c3cc(C)ccc3C)CC2)cc1,7.73
14,O=c1[nH]c2c(s1)C(c1ccccc1)C1C3CCC(C3)C1S2 (stereo not shown),9.85
15,CCCCn1c(N)c(N(CCC(C)C)C(=O)c2cc(CC)c(C)s2)c(=O)[nH]c1=O,8.95
16,CC(=O)N1CC2(C)CN(C(C)=O)CC(C)(C1)C2=O,5.55
17,COc1ccccc1C(=O)OCCCN=C1NS(=O)(=O)c2ccccc21,16
18,CCc1nnc(NC(=O)/C=C/c2ccc(C)o2)s1,-3.68
19,Cc1cccc(C(=O)N[C@H](C(=O)Nc2nccs2)C(C)C)c1,20
20,Cc1ccsc1/C=N/NC(=O)c1sccc1C,16.2

row,SMILES,"hERG current change (%, negative = inhibition) at 1uM [%]"
1,CCOc1cc(C(=O)NCc2ccncc2)cc(OCC)c1OCC,2.99
2,CC1(C)CC(=O)C2=C(C1)Oc1ncn(CCO)c(=N)c1C2c1ccccc1 (stereo not shown),-14.9
3,COc1ccc(CC2(CO)CCN(S(=O)(=O)N(C)C)CC2)cc1,14.7
4,COc1ccc(-c2nc(O)c3cnccn23)cc1,10.4
5,O=C(Nc1ccsc1C(=O)O)c1ccccc1,18.7
6,CCc1ccc(CNC(=O)CCC(=O)n2ncc3cc(C)ccc32)cc1,30.9
7,Cc1ccc(N=C2NC(=O)/C(=C/c3cccnc3)S2)cc1C,13.7
8,CCN(CC)CCN(C(=O)c1ccc(S(=O)(=O)N(C)C2CCCCC2)cc1)c1nc2ccc(OC)cc2s1.Cl,9.61
9,CCc1ccccc1N(CC(=O)NC1CCCC1)C(=O)CNC(=O)c1cccs1,7.96
10,CCOC(=O)C1CCCN(c2c(NCc3ccco3)c(=O)c2=O)C1 (stereo not shown),4.76
11,COc1ccc(NC(=O)CSC(C)c2nc3ccccc3c(=O)[nH]2)cc1 (stereo not shown),11.2
12,CCOc1ccc(/C=N/NC(=S)Nc2c(C)cccc2C)cc1,5.7
13,O=C(COC(=O)CSCC(=O)N1CCCCC1)Nc1ccc(Cl)cc1,9.28
14,Brc1ccccc1-c1nnc2sc(-c3ccc4c(c3)OCCO4)nn12,2.14
15,COc1ccc(Cl)cc1N(CC(=O)NCC(C)C)S(=O)(=O)c1ccc(C)c([N+](=O)[O-])c1,7.33
16,Cc1cccc(OC(C)C(=O)NC2CCS(=O)(=O)C2)c1C (stereo not shown),2.25
17,CCc1noc(C)c1C(=O)Nc1cccc2ncccc12,17.9
18,Cn1ncc2c(Nc3ccc(-c4ccccc4)cc3)ncnc21,6.23
19,CCOC(=O)c1cnc(SCc2ccccc2)nc1N,2.64
20,COc1ccccc1C(=O)Nc1ccc(S(=O)(=O)N2CCCCC2)cc1,-3.45

row,SMILES,"hERG current change (%, negative = inhibition) at 1uM [%]"
1,O=S(=O)(Nc1ccc(F)cc1)c1ccc(NC(=S)Nc2ccccc2)cc1,2.95
2,CCOC(=O)c1cncc(NC(=O)c2ccccc2)c1,8.36
3,Cn1nc(C(F)(F)F)c(C(=O)Nc2cccc(C(F)(F)F)c2)c1SCc1ccc(Cl)cc1,-1.14
4,COc1ccc(OC)c(Nc2nc3nonc3nc2N2CCCCC2)c1,12.9
5,COC(=O)c1ccc(CN2CCC(n3nccc3NC(=O)C3CC3)CC2)cc1,-6.68
6,CCN(CC)C(=O)/C(=C\c1ccc(Br)cc1)NC(=O)c1ccccc1OC,3.5
7,CCOC(=O)c1c(C)[nH]c(C)c1C(=O)CSc1ncccn1,-0.18
8,CCOc1ccccc1CNC(=O)c1ccc(NC(=O)C2=C(C)OCCS2)cc1,20.1
9,CCNC(=O)Cc1ccc(S(=O)(=O)N2CCOCC2)s1,8.11
10,COc1ccccc1NS(=O)(=O)c1cc(NC(=S)NCC2CCCO2)ccc1C (stereo not shown),23.2
11,Cc1ccccc1OCC(=O)OCC(=O)c1c[nH]c2ccccc12,11.2
12,COc1ccc2cc3cc(C(=O)NCc4cccnc4)oc3nc2c1,-1.47
13,CC(C)Oc1ccc(C(=O)NC2(C(F)(F)F)NC(=O)N(CCCc3ccccc3)C2=O)cc1 (stereo not shown),-3.59
14,CN(CC(=O)NC(c1ccccc1)c1ccccc1)Cc1nc2ccccc2c(=O)[nH]1,-9.92
15,O=C(Nc1ccccc1OC(F)F)c1ccc(S(=O)(=O)N2CCOCC2)cc1,12.5
16,COc1ccc(-c2ccc(NS(=O)(=O)c3cccc([N+](=O)[O-])c3)cc2)nn1,12.5
17,O=C(COc1ccccc1)OCc1cc2ccccc2[nH]c1=O,6.17
18,COc1cc(C(C(=O)NC2CCCCC2)N(C(=O)Cc2c[nH]c3ccccc23)c2ccc(C)cc2)cc(OC)c1OC (stereo not shown),9.08
